± gives the standard deviation of the averaged measurements. The list shows a part of the results.

This assay concerns PfAP2-EXP AP2 domain (GST-tagged). In words: gcPBM binding intensity (ln(normalized median fluorescence intensity)); higher = stronger DNA binding. An outline of the steps: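 Binding intensity values are the highest Masliner-normalised natural-log median intensity among replicate spots of either probe orientation. The binding step lasted 1 h in 1× PBS with 1% milk, 0.2 mg/ml BSA, 0.5% salmon testes DNA and 0.03% Triton X-100, using GST-tagged P. falciparum DNA-binding domains expressed in E. coli on an Agilent 4 × 180k array of primer-extended double-stranded 36-bp intergenic genomic probes plus negative controls. Alexa488 anti-GST antibody and a 488 nm scan detected bound protein.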
For “TGAAATAAAATTTATACACACTTGCTAAATGATCAT [CACACA_site4265]”, the “gcPBM binding intensity (ln)” value came out at 8.32 ± 0.47. Consider “TATCATTAATTTACATGTACATAAATGAATGTTTAT [XGTACX_site5608]”, for which the “gcPBM binding intensity (ln)” value turned out to be 8.39 ± 0.28. Regarding “TTCGTAATTTATATCACACACATATATCTATAATAA [CACACA_site7458]”, the “gcPBM binding intensity (ln)” value was 8.6 ± 0.18. As to “AAAGGCTATCTTATATACTCCTAAAACGCGAACGTA [CACACA_negctrl_site396]”, the “gcPBM binding intensity (ln)” value is 8.32 ± 0.56. Turning to “AATATATAAATATTGTGTACTTATTTTTTTATATGT [XGTACX_site4377]”, the “gcPBM binding intensity (ln)” value turned out to be 8.49 ± 0.18.

In the case of “ATAAATTCTATGTATACACACATATAAAATATAGAT [CACACA_site7296]”, the “gcPBM binding intensity (ln)” value was 8.38 ± 0.4.

As to “ATTATATACATATATGCACACAAAAAAATATATATT [CACACA_site8508]”, the “gcPBM binding intensity (ln)” value amounted to 8.72 ± 0.43. “ATACAAATTGTTTAAAGTACAAATTACACCTCTTAA [XGTACX_site6888]”: the “gcPBM binding intensity (ln)” value worked out at 8.32 ± 0.45. “TATATACACATATATAAACACACAAAAAAAAAAAAA [CACACA_site8626]”: the “gcPBM binding intensity (ln)” value was found to be 8.28 ± 0.61. For the sequence “TGTAAATATATATATACACACACACCGAAGCAATAG [CACACA_site8960]”, the “gcPBM binding intensity (ln)” value is 9.11 ± 0.49. “CATACAGACATACATACACACATACATACAGACATA [CACACA_site6996]”: the “gcPBM binding intensity (ln)” value stood at 8.65 ± 0.56.

Turning to “GTATATCACACATTTGCATGTTGTCAATAGTTTATC [TGCATGCA_site134]”, the “gcPBM binding intensity (ln)” value came to 9.04 ± 0.35. Regarding “TAAAAAGGAAGACACACACACACATATATAAATATA [CACACA_site7657]”, the “gcPBM binding intensity (ln)” value stood at 8.72 ± 0.43.

As to “TTTTTTTTTTTTTAAACATGCATATTAATATTATAT [TGCATGCA_site820]”, the “gcPBM binding intensity (ln)” value was 8.59 ± 0.38. Consider “ACATTAAAAAAAAAATGTACATAAATATTTTTCCTT [XGTACX_site4361]”, for which the “gcPBM binding intensity (ln)” value came out at 8.24 ± 0.34. For “ATCTTTTATATAAAATGTACAGAGTTTGAAAGAATA [XGTACX_site8826]” the value was 8.66 ± 0.54; for “AATTTTATTCATTGAGCACACAAAATAAATTATCAA [CACACA_site9079]”, 8.32 ± 0.26. For “GTATTACAACGACACACACACCTATATATCATAGTA [CACACA_site7877]” the value was 8.64 ± 0.39. “TAGAACAAATAAAACACACACATATAAATATAGATG [CACACA_site7325]”: the “gcPBM binding intensity (ln)” value came out at 8.59 ± 0.32. Take “GATATTATGTGTTTGGTATTTTTTGATGTTGGTAGG [XGTACX_negctrl_site563]”: the “gcPBM binding intensity (ln)” value came to 8.8 ± 0.64. As to “GTGCAAAATATTTTTACACACAAATTCTTACAACAG [CACACA_site7556]”, the “gcPBM binding intensity (ln)” value was 8.66 ± 0.17. For “ATATCTATGTTTATCTCGAATAACTTAAAAAATTAT [CACACA_negctrl_site1131]” the value was 8.37 ± 0.45.

With “TTTATACAAACAACTTTATATTAATGTTTAACGGAG [GTGCAC_negctrl_site396]”, the “gcPBM binding intensity (ln)” value came to 8.35 ± 0.54. Regarding “AAGGCAAACAAACACACACACATATATACATATATA [CACACA_site2122]”, the “gcPBM binding intensity (ln)” value stood at 8.62 ± 0.44. On to “TCTTTCTAAAGATGTAGTACAAAATAAATATAATAT [XGTACX_site6564]”, for which the “gcPBM binding intensity (ln)” value was 8.76 ± 0.42. On to “TAATATGCTCATGTAACACACATTTGCATATTTTTC [CACACA_site1357]”, for which the “gcPBM binding intensity (ln)” value turned out to be 8.74 ± 0.38. With “TTATCACACCTTTTTTGTACGAAATAAAAAAAAAAA [XGTACX_site5564]” the figure was 8.33 ± 0.37. As for “ATTTTTACTTTTTATGCATGCTATATTTTCAACCAT [TGCATGCA_site871]”, the “gcPBM binding intensity (ln)” value was 9.91 ± 0.22.

As for “GGTATTACTTTTAGCTGTACTTATTTAAAAGTCAAA [XGTACX_site530]”, the “gcPBM binding intensity (ln)” value was 8.81 ± 0.13. For “ATTTTTTTTTTTTTATGTACATATTAAAAAAAATAT [XGTACX_site1829]”, the “gcPBM binding intensity (ln)” value is 8.49 ± 0.39. In the case of “ATTAAGGAAAAATTATGTACACAAAAACATATAACA [XGTACX_site2901]”, the “gcPBM binding intensity (ln)” value was 8.88 ± 0.21. For the sequence “TATACATGTTCAATTTGTACATATATAAATATATAT [XGTACX_site3554]”, the “gcPBM binding intensity (ln)” value is 8.38 ± 0.29. With “CTACACAAGCATTAAACACACAAAAGGGATACTTTG [CACACA_site1083]” the figure was 8.61 ± 0.57; with “ATTCAAAAAAATAAAATAAACATAAATAAACATAAA [TGCATGCA_negctrl_site390]”, 8.62 ± 0.4. For “AAAATATTTAAGCATTGTACATATTTTTACAAATAC [XGTACX_site5349]” the value was 8.38 ± 0.42. On to “AAAATTCATCCAACAAGTACATAAATATAATATTAT [XGTACX_site4596]”, for which the “gcPBM binding intensity (ln)” value is 8.48 ± 0.35. For “GGAAAAAGAAATTAATGTACATGTGGATGTATGAGG [XGTACX_site5468]” the value was 8.95 ± 0.43. “TAGAAACCATAAAAATGTACTTAAAAATAGACAATT [XGTACX_site5007]”: the “gcPBM binding intensity (ln)” value stood at 8.53 ± 0.3. Regarding “AAGAACAGATAAAATCGTACGTGAAACATGAACTTG [XGTACX_site7793]”, the “gcPBM binding intensity (ln)” value came out at 8.67 ± 0.33.

With “TCTGAAATTTTAGGGGTGCCTGGGACTAAAGAAACG [GTGCAC_site9785]”, the “gcPBM binding intensity (ln)” value stood at 8.74 ± 0.33.

As to “ATACATAAATATTATTGTACATATATAATATTAATA [XGTACX_site3514]”, the “gcPBM binding intensity (ln)” value is 8.29 ± 0.35. In the case of “ATAAATTCATTATATTGTACAAACAAATGAAAAAAA [XGTACX_site8304]”, the “gcPBM binding intensity (ln)” value turned out to be 8.57 ± 0.33. “AGACTTTTTATGAGCACACACATATATTATGGAGTA [CACACA_site1040]”: the “gcPBM binding intensity (ln)” value is 8.56 ± 0.38. “TTTAATTCCCATATATGTACACAATTTCTTCTATAA [XGTACX_site1465]”: the “gcPBM binding intensity (ln)” value was 8.86 ± 0.47. Regarding “TCTTCATATGTTTACTGTACGAGAAAAAAAAAAAAA [XGTACX_site6418]”, the “gcPBM binding intensity (ln)” value amounted to 8.62 ± 0.5.

For the origin of these results see the supplement of paper PMC11417369.
